From patent publication US20180251535A1 (ARMAGEN, published 2018)

Biological target: T1, human insulin receptor extracellular domain (HIR ECD) (human, UniProt P06213 28-956, limits assumed)
T1 construct: extracellular domain; Purified on a wheat germ agglutinin column from serum free medium of CHO cells permanently transfected with the HIR ECD (Coloma et al. 2000)
Test: ELISA, HIR ECD plated, detection with biotinylated goat anti-human IgG

EC50: 0.81 nM
B1: HIR Ab-GUSB fusion protein (GUSB fused to the carboxyl terminus of the HIR Ab heavy chain) (other, human)
heavy: QVQLQQSGPELVKPGALVKISCKASGYTFTNYDIHWVKQRPGQGLEWIGWIYPGDGSTKYNEKFKGKATLTADKSSSTAYMHLSSLTSEKSAVYFCAREWAYWGQGTLVTVSA[human IgG1 constant region left out]SSLQGGMLYPQESPSRECKELDGLWSFRADFSDNRRRGFEEQWYRRPLWESGPTVDMPVPSSFNDISQDWRLRHFVGWVWYEREVILPERWTQDLRTRVVLRIGSAHSYAIVWVNGVDTLEHEGGYLPFEADISNLVQVGPLPSRLRITIAINNTLTPTTLPPGTIQYLTDTSKYPKGYFVQNTYFDFFNYAGLQRSVLLYTTPTTYIDDITVTTSVEQDSGLVNYQISVKGSNLFKLEVRLLDAENKVVANGTGTQGQLKVPGVSLWWPYLMHERPAYLYSLEVQLTAQTSLGPVSDFYTLPVGIRTVAVTKSQFLINGKPFYFHGVNKHEDADIRGKGFDWPLLVKDFNLLRWLGANAFRTSHYPYAEEVMQMCDRYGIVVIDECPGVGLALPQFFNNVSLHHHMQVMEEVVRRDKNHPAVVMWSVANEPASHLESAGYYLKMVIAHTKSLDPSRPVTFVSNSNYAADKGAPYVDVICLNSYYSWYHDYGHLELIQLQLATQFENWYKKYQKPIIQSEYGAETIAGFHQDPPLMFTEEYQKSLLEQYHLGLDQKRRKYVVGELIWNFADFMTEQSPTRVLGNKKGIFTRQRQPKSAAFLLRERYWKIANET
light: DIQMTQSPSSLSASLGERVSLTCRASQDIGGNLYWLQQGPDGTIKRLIYATSSLDSGVPKRFSGSRSGSDYSLTISSLESEDFVDYYCLQYSSSPWTFGGGTKMEIKRTVAAPSVFIFPPSDEQLKSGTASVVCLLNNFYPREAKVQWKVDNALQSGNSQESVTEQDSKDSTYSLSSTLTLSKADYEKHKVYACEVTHQGLSSPVTKSFNRGEC
notes: range 23-633; also called HIRMAb-GUSB fusion protein; pCD-HC-GUSB with pCD-LC
